44 sequences from the supplement of paper PMC11417369 can be followed below.

Some of the results follow.

In the test the test system is PfHDP1 homeodomain (GST-tagged). As to the kind of experiment: gcPBM binding intensity (ln(normalized median fluorescence intensity)); higher = stronger DNA binding. In short, it runs like this: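 An Agilent 4 × 180k array of primer-extended double-stranded 36-bp intergenic genomic probes, with negative controls, was incubated for 1 h with GST-tagged P. falciparum DNA-binding domains expressed in E. coli. Alexa488 anti-GST antibody detected bound protein, scanned at 488 nm. Binding intensity is the highest Masliner-normalised natural-log median intensity across replicate spots of either probe orientation.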
For “AAAAATTTTTTTTTTTTTTTAAATAATAAAAATGAA [CACACA_negctrl_site1435]”, the “gcPBM binding intensity (ln)” value amounted to 5.94.

As to TATTATTATTTTATGGTGCAAAAAAAAAAAAAAAAA, the “gcPBM binding intensity (ln)” value was determined as 9.91.

On to “TAACATAAATTTAGGAGTACACTTTTTATACATACA [XGTACX_site4066]”, for which the “gcPBM binding intensity (ln)” value was determined as 6.49.

In the case of “TATATATTTATTTATAGTACACTATTTATGAAAACC [XGTACX_site3062]”, the “gcPBM binding intensity (ln)” value worked out at 6.42.

Consider “CATTATTATTAACATACACACGTGTTATATACCCCC [CACACA_site9365]”, for which the “gcPBM binding intensity (ln)” value amounted to 8.1.

“CATATAAATATTTGTGCACACAATTATTAATAATTA [CACACA_site3884]”: the “gcPBM binding intensity (ln)” value came to 11.2.

For “AAAAAGTTATTATGAACACACATTTATTATAGTCAT [CACACA_site6838]”, the “gcPBM binding intensity (ln)” value was determined as 6.26.

As for “ATTTGAAATTGGTAGACACACAATAAAATATCAAAA [CACACA_site447]”, the “gcPBM binding intensity (ln)” value was 5.95.

Turning to “TTAAACTTGAGACACACACACACACGGATATAAAAA [CACACA_site6495]”, the “gcPBM binding intensity (ln)” value turned out to be 7.

With “ATATATATCGGACACACACACATGTTTTAAAACTAT [CACACA_site4218]”, the “gcPBM binding intensity (ln)” value was determined as 7.13.

Regarding “CTTTTATTCAAAAGATGTACTTAAATATATATCTAA [XGTACX_site4326]”, the “gcPBM binding intensity (ln)” value was found to be 5.86.

For the sequence “ATGTGTATAATTAAATGTACATATATATATATATAT [XGTACX_site829]”, the “gcPBM binding intensity (ln)” value was 9.34.

As for “TGCAGTCTGGAGAAACGTACACAGTATCTGGTAACA [XGTACX_site2014]”, the “gcPBM binding intensity (ln)” value worked out at 6.1.

Take “GGCTTTTTTTAATATGCACACATATATTTTATATAT [CACACA_site8647]”: the “gcPBM binding intensity (ln)” value amounted to 10.2.

For “TATAATAATCTAATCTGTAGTTTTTTTTTTTTTTTT [CACACA_negctrl_site1206]”, the “gcPBM binding intensity (ln)” value turned out to be 6.36.

For “AAAAAAAAACAGAAAACACACAAATTATCTTATAAT [CACACA_site4326]”, the “gcPBM binding intensity (ln)” value is 6.53.

For the sequence “ATACTCACGTGACACACACACAATATAAATAAATAT [CACACA_site7862]”, the “gcPBM binding intensity (ln)” value stood at 6.86.

In the case of “AATAAATAAATAAATAAATATATATATATATATATA [GTGCAC_negctrl_site224]”, the “gcPBM binding intensity (ln)” value was 9.34.

As for “TTATATTAAAAAAGATGTACGTTTAGGAAAAATATA [XGTACX_site7456]”, the “gcPBM binding intensity (ln)” value was found to be 6.53.

Turning to “TTTCTAAATAATTATAATGAATCTGCAAACAAGCAT [XGTACX_negctrl_site391]”, the “gcPBM binding intensity (ln)” value is 6.15.

Take “TTAGATTTAAATATCATACACACTTTATATATAATA [CACACA_site959]”: the “gcPBM binding intensity (ln)” value came to 6.7.

Consider “ATAAAAATAAACATACGTACTTACACGAATATACAT [XGTACX_site5989]”, for which the “gcPBM binding intensity (ln)” value came to 6.55.

Turning to “CTTGAAAAAATAAAAACACACAATGTGTTTTTGAAT [CACACA_site3283]”, the “gcPBM binding intensity (ln)” value was 6.16.

For “ATATTACTATATTATTGTACGTTAAAAAAAAAAAAT [XGTACX_site8734]”, the “gcPBM binding intensity (ln)” value was determined as 6.52.

Turning to “TTTTTTTTTTTTAATACACACATATTTATATTTATT [CACACA_site7802]”, the “gcPBM binding intensity (ln)” value was found to be 6.63.

As to “TTTTTCTTAAAAAATTGTACACATATATATATATAT [XGTACX_site542]”, the “gcPBM binding intensity (ln)” value is 9.21.

As for “ATTAAGTTAAACATTACACACTATGTATTATTTATG [CACACA_site973]”, the “gcPBM binding intensity (ln)” value amounted to 6.33.

Turning to “CTAAGCTAAGTAAGCTGTACTTCACCTTTATACAGT [XGTACX_site3087]”, the “gcPBM binding intensity (ln)” value worked out at 6.19.

As for “CTATTTTTATATTATTGTACGTTGTTATTATATATA [XGTACX_site1469]”, the “gcPBM binding intensity (ln)” value was found to be 6.79.

As for “ATATAGAACACCTGTGCATGCAAGTGCTAAAAAATT [TGCATGCA_site213]”, the “gcPBM binding intensity (ln)” value worked out at 8.59.

With “TAATATTATTTAGAGTGTACTCATAAATCAACAAAA [XGTACX_site5269]”, the “gcPBM binding intensity (ln)” value was 6.33.

Take “TTTATATTTATATATACACACATATACATCCTATTT [CACACA_site3079]”: the “gcPBM binding intensity (ln)” value was determined as 6.61.

With “CATATTTACTATCACACACACGATATATATAAATAT [CACACA_site1241]”, the “gcPBM binding intensity (ln)” value came to 6.87.

As to “TTTTTTTTTTTTTTCTCACACATTTAATGATAATAT [CACACA_site5513]”, the “gcPBM binding intensity (ln)” value came out at 6.28.

In the case of “TTTTTTTTTTTTTGCACACACATAATAGGTACAAAT [CACACA_site3577]”, the “gcPBM binding intensity (ln)” value turned out to be 10.1.

Regarding “ATATATATATATATATGTACTAACCTTTTAAAATAT [XGTACX_site6488]”, the “gcPBM binding intensity (ln)” value was found to be 9.31.

For the sequence “AATTGGGTAGGACATGCATGAGAAATTAATATTGCA [TGCATGCA_site356]”, the “gcPBM binding intensity (ln)” value stood at 7.19.

With “ATGTCAAACATTTGCACACAAAAAAATAAAAATTAA [CACACA_site692]”, the “gcPBM binding intensity (ln)” value was found to be 10.6.

Consider “TATTACATTGTTGAATGTACTCATTTAAAATTTATA [XGTACX_site7987]”, for which the “gcPBM binding intensity (ln)” value came to 6.17.

Turning to “AATCAAAGCCCACATACACACACATATATATATATA [CACACA_site7987]”, the “gcPBM binding intensity (ln)” value worked out at 9.28.

Regarding “TTATACTAAATGAACACACACACATCTATATTTATA [CACACA_site6199]”, the “gcPBM binding intensity (ln)” value worked out at 6.68.

“AAATTAGACTATAATACACACATAAAAAAAAAATCA [CACACA_site7672]”: the “gcPBM binding intensity (ln)” value turned out to be 6.51.

Turning to “AATTAAAATAATAATACACACATCATAGAAAAAGAC [CACACA_site292]”, the “gcPBM binding intensity (ln)” value is 7.51.

In the case of AGGTTTTCTTAAATAGTGCATTATAACAAAAATAAA, the “gcPBM binding intensity (ln)” value stood at 9.58.
